Article PMC4807287
No constants are given. Whether binding was seen depends on the method and setting. For part of these data: Binding seen in cells or lysates may run through a third protein. Some binding calls cover weakened binding; strength is not graded here. For part of these data: Tags and fused reporters may be left off the sequences shown.

Protein sequences, listed by entry. Tags and fused reporters are not part of them.
UniProt Q9Y5S8: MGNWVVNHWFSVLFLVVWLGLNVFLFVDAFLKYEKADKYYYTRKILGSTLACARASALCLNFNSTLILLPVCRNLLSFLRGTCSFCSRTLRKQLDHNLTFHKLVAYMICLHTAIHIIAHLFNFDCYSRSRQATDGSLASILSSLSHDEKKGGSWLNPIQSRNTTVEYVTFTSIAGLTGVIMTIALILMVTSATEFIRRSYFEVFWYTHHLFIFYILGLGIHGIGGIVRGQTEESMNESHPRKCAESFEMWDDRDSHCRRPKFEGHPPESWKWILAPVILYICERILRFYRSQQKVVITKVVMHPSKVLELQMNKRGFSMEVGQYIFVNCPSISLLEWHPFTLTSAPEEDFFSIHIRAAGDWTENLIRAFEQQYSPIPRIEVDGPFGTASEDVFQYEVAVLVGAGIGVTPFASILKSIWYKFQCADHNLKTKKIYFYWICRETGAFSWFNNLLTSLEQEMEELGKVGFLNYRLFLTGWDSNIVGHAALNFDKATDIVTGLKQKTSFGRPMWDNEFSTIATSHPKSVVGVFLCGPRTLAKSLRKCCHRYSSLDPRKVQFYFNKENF

Key:
NOX1-YFP fusion protein = NOX1-YFP fusion protein (UniProt Q9Y5S8); experiment: co-IP; HEK293 cells transiently transfected with GFP, NOX1-YFP, NOX2-YFP or NOX4-YFP; IP with anti-GFP antibody; Western blot for CANX
NOX2-YFP fusion protein = target: T1, NOX2-YFP fusion protein (UniProt P04839); experiment: as above
T1 sequence: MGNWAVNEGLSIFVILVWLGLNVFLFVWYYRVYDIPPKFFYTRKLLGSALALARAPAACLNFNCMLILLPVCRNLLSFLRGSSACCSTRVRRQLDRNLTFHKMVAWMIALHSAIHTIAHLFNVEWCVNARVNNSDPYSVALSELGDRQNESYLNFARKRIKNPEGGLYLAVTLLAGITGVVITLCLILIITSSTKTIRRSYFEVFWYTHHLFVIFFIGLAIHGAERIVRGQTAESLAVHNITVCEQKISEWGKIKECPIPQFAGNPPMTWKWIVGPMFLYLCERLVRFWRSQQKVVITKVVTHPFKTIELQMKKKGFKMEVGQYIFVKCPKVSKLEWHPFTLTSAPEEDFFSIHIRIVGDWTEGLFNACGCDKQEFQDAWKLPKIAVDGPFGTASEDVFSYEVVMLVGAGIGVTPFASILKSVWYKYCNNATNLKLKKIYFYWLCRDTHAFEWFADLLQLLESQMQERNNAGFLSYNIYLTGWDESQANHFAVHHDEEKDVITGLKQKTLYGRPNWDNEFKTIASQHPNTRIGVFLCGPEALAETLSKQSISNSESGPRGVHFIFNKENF

NOX4-YFP fusion protein = target: T2, NOX4-YFP fusion protein (UniProt Q9NPH5); experiment: as above
T2 sequence: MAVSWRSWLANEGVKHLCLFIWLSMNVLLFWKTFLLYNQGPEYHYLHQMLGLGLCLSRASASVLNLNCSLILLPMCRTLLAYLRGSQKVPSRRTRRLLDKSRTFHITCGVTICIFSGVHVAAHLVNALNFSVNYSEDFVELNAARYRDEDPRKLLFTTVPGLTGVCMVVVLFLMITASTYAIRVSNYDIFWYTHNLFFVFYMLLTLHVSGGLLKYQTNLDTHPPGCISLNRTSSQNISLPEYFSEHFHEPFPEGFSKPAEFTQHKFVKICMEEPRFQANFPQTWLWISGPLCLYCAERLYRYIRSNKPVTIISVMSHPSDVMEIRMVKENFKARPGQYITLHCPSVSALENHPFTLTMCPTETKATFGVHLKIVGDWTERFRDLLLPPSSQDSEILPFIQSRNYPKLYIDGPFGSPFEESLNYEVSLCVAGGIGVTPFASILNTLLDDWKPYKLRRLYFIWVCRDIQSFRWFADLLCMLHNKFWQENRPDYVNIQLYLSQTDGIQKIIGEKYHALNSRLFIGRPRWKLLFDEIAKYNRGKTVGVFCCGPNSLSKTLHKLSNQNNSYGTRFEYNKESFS

[1] = target: T3, NADPH oxidase 4 (human NOX4), overexpressed in HEK293 cells (human) (UniProt Q9NPH5); experiment: co-IP; IP with NOX4 antibody on magnetic protein G beads from Ctl and NOX4-HEK293 cells (1% digitonin lysate or digitonin-solubilised 100,000 x g membranes); Western blot for CANX
T3 sequence: T2 sequence

[2] = target: T3, NADPH oxidase 4 (human NOX4), overexpressed in HEK293 cells (human); experiment: native gel or EMSA; BN-PAGE of 15,000 x g membrane pellets of NOX4-HEK293 cells solubilised with digitonin (6 g/g protein); MS-based complexome profiling of 40 gel fractions and two-dimensional BN/SDS-PAGE Western blot; co-migration
[3] = target: T3, NADPH oxidase 4 (human NOX4), overexpressed in HEK293 cells (human); experiment: proximity ligation; Duolink PLA on formaldehyde-fixed, Triton-permeabilised cells with rabbit monoclonal anti-NOX4 and anti-CANX (sc-6465) antibodies; controls were the CANX antibody blocking peptide, omission of the NOX4 antibody, and Nox4-/- or Canx-/- cells; done in NOX4-HEK293 cells, mouse podocytes and MEFs

binding (NOX1-YFP fusion protein): no binding
binding (NOX2-YFP fusion protein): no binding
binding (NOX4-YFP fusion protein): binds
binding [1]: binds
binding [2]: binds
binding [3]: binds
B1: Calnexin, endogenous in HEK293 cells (protein, UniProt P27824 21-592)
chain: HDGHDDDVIDIEDDLDDVIEEVEDSKPDTTAPPSSPKVTYKAPVPTGEVYFADSFDRGTLSGWILSKAKKDDTDDEIAKYDGKWEVEEMKESKLPGDKGLVLMSRAKHHAISAKLNKPFLFDTKPLIVQYEVNFQNGIECGGAYVKLLSKTPELNLDQFHDKTPYTIMFGPDKCGEDYKLHFIFRHKNPKTGIYEEKHAKRPDADLKTYFTDKKTHLYTLILNPDNSFEILVDQSVVNSGNLLNDMTPPVNPSREIEDPEDRKPEDWDERPKIPDPEAVKPDDWDEDAPAKIPDEEATKPEGWLDDEPEYVPDPDAEKPEDWDEDMDGEWEAPQIANPRCESAPGCGVWQRPVIDNPNYKGKWKPPMIDNPSYQGIWKPRKIPNPDFFEDLEPFRMTPFSAIGLELWSMTSDIFFDNFIICADRRIVDDWANDGWGLKKAADGAAEPGVVGQMIEAAEERPWLWVVYILTVALPVFLVILFCCSGKKQTSGMEYKKTDAPQPDVKEEEEEKEEEKDKGDEEEEGEEKLEEKQKSDAEEDGGTVSQEEEDRKPKAEEDEILNRSPRNRKPRRE
